PubChem BioAssay AID1508624 (National Center for Advancing Translational Sciences (NCATS), 2021)
In all, about 48,000 compounds went through this assay and about 120 (0.25%) were called active. Another 4% or so got no clear call; they are omitted. Calls follow the shape of the dose curve; as a rule, active = well fitted activation curve with a large enough effect; inconclusive = small, poorly fitted or top-dose-only effect, or another doubt; inactive = no such curve, though single readings can be large or run the other way. The list shows a part of the results.

assay: Primary qHTS for Identification of Small Molecule Activators of Huntingtin-Antisense Promoter Activity; conditions: HEK293 HTT-AS promoter firefly luciferase reporter (activity 0% = vehicle and -100% = no light), 24 h; series mostly up to 57.5 µM; activity change, positive = activation: at the top concentration; also: nearly all actives have a fitted effect of over 55% in size
Method in brief: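 Luminescence was read after Dual-Glo reagent and a 10 min room-temperature incubation. Values were normalized to vehicle (0% activity) and zero RLU (-100% activity). Reporter HEK293 cells had been exposed to compounds (up to 57.5 uM final) for 24 h.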

Activity change, positive = activation, inactive:
CCCCn1c(=O)c2oc3ccccc3c2n(CC(=O)Nc2ccc(CC)cc2)c1=O -3.13%, CCn1cc2nc(SCc3cc(C)ccc3C)n(CCc3ccccc3)c(=O)c2n1 7.07%, CCCCn1c(=N)n(CCCOc2ccc(F)cc2)c2ccccc21 -25.4%, COC(=O)c1c(C)oc2ccc(N(C(=O)c3ccncc3)S(=O)(=O)c3ccc(OC)cc3)cc12 -68.4%, O=C(Nc1cccc(C(F)(F)F)c1)c1ccc2c(c1)nnn2C1CCCC1 -18.3%, CCc1ccc(-n2c(=O)c3c4c(sc3n(Cc3ccccc3C#N)c2=O)CCC4)cc1 -0.373%, COc1ccc(S(=O)(=O)NCCc2nnc3ccc(SCC(=O)Nc4ccccc4C)nn23)cc1 -21.2%, Cc1nc(S(=O)(=O)N2CCN(c3cccc(Cl)c3)CC2)cn1C -7.38%, O=C(NCCc1ccc(Cl)cc1)c1ccc2nc(CCc3ccccc3)oc2c1 15.7%, COc1cc(OC)cc(-c2nnc(SCC(=O)c3ccc([N+](=O)[O-])cc3)o2)c1 6.26%, CC(C)Cn1c(CN2CCN(c3cccc(Cl)c3)CC2)nc2c1c(=O)[nH]c(=O)n2C -39.3%, O=C(CSc1nncn2c1cc1occc12)Nc1ccc(F)c(Cl)c1 -13.9%, COc1ccc(N(CC(=O)NCCc2ccc(C)cc2)S(=O)(=O)c2c(C)nn(C)c2C)cc1 -23.8%, COc1cc(Nc2nn(-c3ccc(OC(F)(F)F)cc3)nc2C(C)=O)cc(OC)c1 -2.65%, Cn1c(=O)c2c(nc(N3CCOCC3)n2Cc2ccccc2Cl)n(C)c1=O -9.7%, COCCCNC(=O)CCCn1c(=O)c2ccccc2n(CC(=O)Nc2ccc(C)cc2Cl)c1=O -14.2%, CC(C)Cn1c(-c2ccccc2Cl)nc2ccccc21 -0.621%, O=C(NCCc1ccc(Cl)cc1)c1nnc(Cc2ccc(Cl)cc2Cl)o1 -13%, CCOc1ccc(-c2c(C)nn3c(C)c(C(=O)NCCN(C)C)cnc23)cc1OCC -6.45%, COc1ccc(N(CC(C)C)S(=O)(=O)c2nnc(NC(=O)c3ccco3)s2)cc1 -38%, Cc1c(Cl)cccc1NC(=O)Cn1c(=O)cc(C)c2c(C)nn(-c3cccc(F)c3)c21 -8.59%, COc1ccc(NC(=O)c2cc(-c3ccc(F)cc3)no2)cc1OC -6.12%, COc1ccccc1Cc1nc2ccccc2nc1SCC(=O)Nc1c(C)cccc1C -8.52%, O=C(OCC(O)CO)c1ccccc1Nc1ccnc2c(C(F)(F)F)cccc12 (stereo not drawn) -25.2%, Cc1cc(NC(=O)c2ccco2)cc(-c2nc3ccccc3o2)c1O 2.51%, CCCNC(=O)Cn1nc(-c2ccc(C)cc2)c2cnc3ccc(CC)cc3c21 -0.267%, CCN(C(=O)CCS(=O)(=O)c1cc2c(cc1C)NC(=O)CO2)c1cccc(C)c1 -14.3%, CCn1c(C)c(C)c2cc(C(=O)N3CCN(c4ccccc4)CC3)ccc21 -11.4%, CN(C)CCN(Cc1ccccc1)S(=O)(=O)c1csc(C(N)=O)c1 9.3%, CCCCc1nn2c(=O)cc(COC(=O)c3ccc4c(c3)OCO4)nc2s1 5.61%, CCOC(=O)c1cc(-c2ccc(OC)cc2)n(CCC(=O)Nc2cccc(C)c2C)c1C -20.5%, O=C(CCCn1c(=O)[nH]c2ccc(Br)cc2c1=O)N1CCN(c2cccc(Cl)c2)CC1 -62.5%, COc1cc(OC)cc(-n2c(=O)c3ccccc3n(Cc3ccccc3C#N)c2=O)c1 3.85%, COC(=O)c1ccccc1NC(=O)Cn1nnc(-c2ccc(OC)cc2)n1 -25.9%, CCC(=O)Nc1cc(-c2cn3cccnc3n2)ccc1OC -1.06%, CC1=C(C(=O)Nc2ccccc2)C(C(C)C)n2nc(SCc3ccccc3C)nc2N1 (stereo not drawn) 3.95%, OCC(O)C(O)C(O)CO (stereo not drawn) -15.1%, COc1cc(NC(=O)c2ccc(-c3nc(CSc4ccccc4)c(C)o3)cc2)cc(OC)c1 -57.9%, CCc1ccccc1N(C)C(=O)c1nn(-c2ccc(OC)cc2)c(=O)c2c1c1ccccc1n2C -3.5%, CCOc1ccc(CNc2cc(C)nc3nc(-c4cccc(C)c4)nn23)cc1OC 3.87%, Cc1cccc(NC(=O)c2ccc3oc(=O)c(S(=O)(=O)c4ccc(F)cc4)cc3c2)c1C -3.38%, CC1CCc2c(sc3nnn(Cc4ccccc4Cl)c(=O)c23)C1 (stereo not drawn) -9.64%, CCOc1ccc(S(=O)(=O)c2cc3cccc(OCC)c3oc2=O)cc1 6.25%, CCOc1ccccc1Oc1ncnc2c1oc1ccccc12 -19.6%, CCOc1ccccc1CNCc1c(C(=O)O)n(Cc2ccccc2)c2cc(OC)ccc12 -10.4%, CCOc1ccccc1C1C(C(=O)Nc2ccccc2)=C(C)Nc2nc(-c3ccccc3)nn21 (stereo not drawn) -17.7%, COc1ccccc1OCc1nc2ccccc2n1Cc1ccccc1 0%, CCOc1ccccc1NCc1nnc2n1CCCCC2 -6.38%, CC(C)NC(=O)CSc1cn(CC(=O)N2CCCCCC2)c2ccccc12 -19.4%, Cc1ccc(-c2nnc3c4ccccc4c(-c4ccccc4)nn23)cc1 -12%, Cc1ccc(NCc2cc3cc4c(cc3n(CC(=O)Nc3ccc(C)cc3)c2=O)OCCO4)cc1 8.24%, COc1ccc(N2CCN(C(=O)c3cnc(N4CCOCC4)c4ccccc34)CC2)cc1 -26.7%, CCc1ccc(-c2nc(CS(=O)CC(=O)NCc3ccc(F)cc3)c(C)o2)cc1 (stereo not drawn) -44.2%, Cc1ccc(Cl)cc1NC(=O)CN1C(=O)c2ccccc2Sc2ncccc21 -19.7%, Cc1ccc(CNS(=O)(=O)c2c(C)nc3sc(C)cn3c2=O)cc1 -19.2%, COc1ccc(CCNC(=O)c2ccc3c(c2)nc2n3CCCCC2)cc1OC -26.3%, CCCn1cnc2cc(NC(=O)c3cc(OC)c(OC)c(OC)c3)ccc21 -4.74%, Cc1cccc(N2CCN(Cc3nnc(-c4cccc(Br)c4)o3)CC2)c1C 0.781%, CC(=O)c1ccc(NC(=O)c2nc(-c3ccccc3)n(-c3ccc(C)cc3)n2)cc1 -16.8%, CCCOC(=O)c1cccc(NC(=O)CSc2nnc3cc(C)c4ccccc4n23)c1 -18.1%, COc1ccccc1NC(=O)Cn1c(=O)oc2cc(S(=O)(=O)NCc3ccccc3)ccc21 -20.2%, O=C(NCc1cccc(Cl)c1)C1CCCN(c2nn3cc(-c4ccc(F)cc4)nc3s2)C1 (stereo not drawn) -70.2%, Cc1ccc(Cn2c(=O)n(Cc3ccc(C(=O)NC4CCN(Cc5ccccc5)CC4)cc3)c(=O)c3ccccc32)cc1 -16.9%, CCc1cccc(NC(=O)C2CCCN2S(=O)(=O)c2ccc3nc(-c4ccccc4)[nH]c3c2)c1 (stereo not drawn) -27.5%, CC(=O)c1ccc(NC(=O)CCn2cccn2)cc1 -0.505%, O=c1c(-c2ccccc2)c1-c1ccccc1 -85.9%, CN1C(=O)Cc2cc(S(=O)(=O)NCc3ccccc3Cl)ccc21 -9.25%, O=C(c1ccc(Br)cc1)N(Cc1ccco1)c1ccccn1 6.29%, Cc1ccc(-n2c(C)nc3c(cnn3-c3ccccc3)c2=O)cc1 -9.79%, CCc1ccc(CNC(=O)c2cccc(-n3c(C)nc4cccnc43)c2)cc1 -28.3%, CCCc1ccc(OCc2ccc(C(=O)Nc3ccccc3C(=O)OC)o2)cc1 19.2%, CCc1ccc(NC(=O)Cn2c(=O)n(-c3cccc(OC)c3)c(=O)c3c(C)c(C(=O)N(C)C)sc32)cc1 3.74%, Cc1ccc2oc(C(=O)N3CCC(c4nc5ccccc5s4)CC3)c(C)c2c1 -12.2%, COc1ccc(C)cc1NC(=O)c1nnn(CC(=O)Nc2c(C)cccc2C)c1N -2.87%, Cc1ccc(C)c(S(=O)(=O)c2nnn3c2nc(NC2CCCC2)c2sccc23)c1 -49.5%, CCc1cccc(NC(=O)c2cc3c(=O)oc4ccc(C)cc4c3s2)c1 -7.04%, COc1ccc(CNC(=O)C(CC(C)C)NS(=O)(=O)c2ccc3c(c2)oc(=O)n3C)cc1 (stereo not drawn) -13.3%, Cc1ccc(S(=O)(=O)c2cn(Cc3ccccc3)c3cc(N4CCCC4)c(F)cc3c2=O)c(C)c1 -8.8%, CSc1nnc(NC(=O)c2cc(=O)c3cc(C)c(C)cc3o2)s1 1.04%, CCOc1c(CNCCSc2nnnn2C)cccc1OC 17.5%, Cc1cccc(C)c1NC(=O)C(=O)NCC(c1ccc2c(c1)OCO2)N1CCN(C)CC1 (stereo not drawn) -8.64%, COc1ccc(OC)c([C@@H]2Nc3ccc(C(=O)O)cc3[C@@H]3C=CC[C@@H]32)c1 -5.88%, Cc1cc(C)n(C(C)CC(=O)Nc2ccc(Cl)cc2C)n1 (stereo not drawn) -7.36%, COc1cccc(CN2C(=O)C3(SCC(=O)N3c3ccc(C)c(Cl)c3)c3ccccc32)c1 (stereo not drawn) -28.6%, CCOC(=O)c1cc(-c2ccc(C)cc2)n(CCCC(=O)Nc2cc(C)ccc2C)c1 -31.5%, CC[C@@]1(O)C(=O)OCc2c1cc1n(c2=O)Cc2cc3c(CN(C)C)c(O)ccc3nc2-1, Cc1cccc(C(=O)n2nc(C)c(S(=O)(=O)N3CCOCC3)c2C)c1 -19.7%, CCCCC(=O)N1CCc2cc(OC)c(OC)cc2C1COc1ccc(C(=O)OCC)cc1 (stereo not drawn) -25.8%, CCOc1ccc(Sc2cc(C(=O)NCc3ccc(C)cc3)c3ccccc3n2)cc1 -0.564%, CCOc1ccccc1NS(=O)(=O)c1cc2[nH]c(=O)c(=O)[nH]c2cc1C -11%, COc1ccc(Cn2ccc3nc(C)c(C(=O)Nc4cc(OC)c(OC)c(OC)c4)cc3c2=O)cc1 -19.6%, COc1ccc(-c2nc3n(n2)C(c2ccccc2OC)C(C(=O)Nc2cccnc2)=C(C)N3)cc1 (stereo not drawn) -7.41%, CCOc1ccccc1NC(=O)c1c2c(nc3ccccc13)C(=O)N(C1CCCCC1)C2 -44.2%, CCOc1ccc(C(=O)Nc2ccc3oc(-c4ccc(C)cc4C)nc3c2)cc1Br 1.02%, CCOc1ccc(NC(=O)Cn2c(=O)n(CCCCC(=O)NCCc3ccc(Cl)cc3)c(=O)c3ccccc32)cc1 -1.11%, CCc1ccccc1NC(=O)CC1NCCNC1=O (stereo not drawn) -6.73%, O=C(C1CCC(CNS(=O)(=O)c2ccc(Br)s2)CC1)N1CCN(c2ccc(F)cc2)CC1 (stereo not drawn) -41.2%, Cc1cc(Nc2cc(CN3CCOCC3)c3nc(C)c(Cc4ccc(Cl)cc4F)n3n2)n[nH]1 -24.6%
